Data reported in the supplement of paper PMC10126150.
Sequences with one replicate were seen in a single cluster, so their values are uncertain.

Tested on: ATP
Assay: switch fluorescence ratio, 500 uM ATP over buffer (Cy3 cluster intensity, sum of 5 cycles each) (fold (ratio)); higher = stronger signal-on switching upon ATP binding; sequences stand for … in TCGTCGGCAGCGTCAGATGTGTATAAGAGACAGTTTTTTTTTTTTTTTTTTTTTTTTT…TC
Settings: aptamer strand: ATP DNA aptamer (quencher-CACCTGGGGGAGTATTGCGGAGGAAGG + anchor), 100 nM annealed; ATP concentration: 500 uM; one replicate
Outline: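 For every switch-domain sequence, the fluorescence ratio is the mean of per-cluster values, each being summed target-cycle Cy3 intensity over summed buffer-cycle Cy3 intensity. Clusters outside 100-1000 RFU were excluded. On a modified Illumina MiSeq flow-cell, the Cy3-labelled switching-strand clusters were annealed to 100 nM quencher-labelled ATP aptamer, imaged in selection buffer and then after 15 min with 500 uM ATP at 22 °C. Five such cycles were run, with NaOH stripping and re-annealing between them.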
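Also: ATP exposure 15 min at 22 °C before imaging.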

Sequence	switch fluorescence ratio
GCGTTCAGTA	0.997
GTCAGCATAG	1.26
ATTGGGAGT	1.01
GGTTTCAATG	1.03
ACACAGTTTC	1.02
TGCATCCGGG	1.05
CATGAGAGTC	1.02
CTTGGTCAGA	1.01
TATTGGGCAC	1
GCAAGGCAA	1.02
GGATCTTAGC	0.971
TTAAGGAGCC	1.01
AGCATTCTTG	0.99
CGTTTAGCGG	1
AAACCGGATT	1.37
CCTATTAAGA	0.979
TCAGGTTCGC	1.05
CAATCTAGCT	0.94
CTCAGATCAT	0.968
AATTAAAATC	1.02
TATGGCGGGC	1.02
GTTACCTTGA	1.04
GGTGTCTCCA	1.05

Sequence	switch fluorescence ratio
CAAGGCTC	0.974
CGTATGTAG	0.964
TTTGATGTGG	1.01
GGAGACTCAG	0.923
AGACCGGCC	1.36
AAGTCTATGC	1.01
ACCAGTGGTG	1.11
GCTGGCCGCT	1.03
CAGCGTTAAT	1.03
CCTCGGACGG	1.14
CTTAAACGCT	0.999
AACCACAAGC	1.15
GGCCAGTAAA	0.964
GAATAACCCG	1.04
TGTAAGAGGT	0.973
TCACTCGATA	1.03
CGGCTTTTCC	1
TGCGTATAGT	0.997
TTCGGGAGGC	1.02
CTAAGGAACA	1.03
ACGGAATTAC	3.3
TTATAGTCTA	1.02
AACTCGGATT	1.06

Sequence	switch fluorescence ratio
TTGCTCGATG	0.97
CGTTACGCAG	1.02
AAAGATGCGA	1
GAAGTCCGAT	1.01
GAGTAGAATG	0.985
CGGGCGCAG	1.01
AATTATAAAA	1
TCGATGCCCC	1.05
GCGACATTAG	0.979
ACGGTGTAGA	0.996
TAGATACCTT	1.14
ATCGAAAGGC	1.09
CGGCTAATTT	1.02
TTAGTAGAT	0.993
GGGGTGCATC	1.04
TTTGTCATGC	1.26
TGTAGGGTAC	1.01
CAGTTACTG	1.04
GTCGAGGGCA	0.997
CGCGCAAGGG	1.76
GTAGTATGGT	1.03
ATAGTGAATT	1.03
TGTAAAGCGC	1.22

Sequence	switch fluorescence ratio
GGCTTGGCGG	0.999
TCATGACTCA	0.909
ACACGCACAC	1.87
AGATCATGTC	0.975
ATGGTTGCT	0.94
TATATAGAGA	0.982
TCAGTGATTT	1.12
ACAATCTCTA	1
TTGGAGGAGC	1.05
TGCATGTAAA	0.981
GTTGCATTTA	1
ATCGACGACT	1.02
CTGTTTTATT	0.999
TTCCCGACGA	1.34
GGGTTAGGCC	0.997
TGAGGATTTA	0.967
CTCAAAACTT	1.03
CGGGTGGCTT	1.02
ACCTGTTGAA	0.994
TGTGGCCTGG	0.959
GGTTAAGCGC	1.04
CCATACAAGC	1.12
GCGAGGCTTT	1.04

Sequence	switch fluorescence ratio
CATGACGTAC	1.77
ACGATTTGTG	0.997
AACTGCAAGC	1.53
CCTGTGGGAA	1.03
TAGGTTATA	1.01
AGAGCCCCCA	1.03
AAAACATGG	0.993
TTATAGATCG	0.956
TGTCGGAAT	1.03
GCAGTTAAG	0.934
AAATGGGTAT	0.989
ATGCTTATGC	0.992
ATGTATCGAT	0.974
GTTTGGCCCG	0.99
AGTTCAGGAG	1.05
CAAGAGGCGG	0.914
CATGGTTGTC	1.02
ATTTGAGAAT	1.03
ACACGGCCTC	1.07
ACCTCGGTTC	1.04
TCCACGTGGT	0.987
CTGTCCACCC	1.04
AGGGTCTAAT	0.969

Sequence	switch fluorescence ratio
CAAACGAGAA	1.08
CTGATTCCCC	1.14
TTTCCTGCGT	1.19
CGGTTACAAC	1.03
TGTACTTTAT	1.02
ATAAGTGCGG	0.989
TGTATAGGCA	1.03
CAGATCATTA	0.966
ATACAATCAC	1.21
CACAGAAATA	1.04
GACAAACAGT	1.07
ATAACTTGC	1.34
TCCAGGGCGC	1.1
CTAGTGAGGG	0.995
GGCGGGGCGG	1.01
GCTACTGGGT	0.94
GACAGAAGAG	0.951
TAAATAGTGT	0.989
CCAGGTTTCT	1.05
TCTACATTT	1.01
GCCAGCATC	1.1
TTCCAACGGG	1.02
TAATGTGTTT	1.05

Sequence	switch fluorescence ratio
ATCTGTGAAG	0.988
CGACTAGGTT	1
CGGAGATACC	1.04
TCGGAGTTGC	0.942
GTGTGTATGG	0.943
ATCCTTGTGG	1.03
GGAGTGGTGT	1.01
ATTGCAGTGT	0.979
CGGGACTCGT	0.98
ACCGAGGTTT	0.98
CGTTTTTGAC	1.01
ATTATCATAC	1.02
CGGCCCGGGG	1.05
GAGGCTCAGG	0.992
CTTGGCCATG	1.01
TGCCTATAGG	1.02
TCCGGGGGTC	1.06
CTACTTATGT	1.01
ACCCGTACCT	1.38
